# Experimental data from publication PMC10726135.
# This is one part of the list. At the low end of the ranking, values are background and their order means little. Measured with an extract: partners may take part in the binding.
# Biological target: T1, HNF4alpha8 (COS-7 nuclear extract) (UniProt P41235-5)
# T1 sequence: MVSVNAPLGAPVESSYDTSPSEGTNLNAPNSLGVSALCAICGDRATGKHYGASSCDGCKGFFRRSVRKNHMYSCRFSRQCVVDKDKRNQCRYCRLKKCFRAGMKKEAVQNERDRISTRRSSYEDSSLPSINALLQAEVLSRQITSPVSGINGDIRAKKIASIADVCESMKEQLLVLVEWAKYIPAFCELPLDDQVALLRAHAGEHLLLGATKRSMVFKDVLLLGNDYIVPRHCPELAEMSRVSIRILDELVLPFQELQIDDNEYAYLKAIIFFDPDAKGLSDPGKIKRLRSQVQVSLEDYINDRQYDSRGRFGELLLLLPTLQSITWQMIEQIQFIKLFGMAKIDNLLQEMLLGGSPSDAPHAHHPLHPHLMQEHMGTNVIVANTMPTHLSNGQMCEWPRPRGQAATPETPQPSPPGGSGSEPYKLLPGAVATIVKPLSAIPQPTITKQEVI
# Test: protein-binding microarray
# Conditions: COS-7 nuclear extract on double-stranded Agilent 4x180k PBM; binding buffer, salt, pH and temperature not given; high values mean tight binding; double strand, one strand shown; sequences stand for … in …GCCTAGGGAGATTAGAGTATCGGTCGA
row,Sequence,binding signal (log2 normalized intensity)
1,CCTCAGCCGGGAGAGGAGGCCCCCTGAGGC,2.29
2,CGGTTTTAGGACAACATGAGTAAACGAGCT,-0.78
3,AAAAAGCTCTGCCTACGCATGCATTCCAGT,-1.4
4,AGATGATGAGGCGGTTCATCCAACAGGTGA,-1.19
5,TTCACTTCCCTATCCCGCTGCTTCCACCAG,-1.23
6,GTTTCTCAAGTGATCGAAGGTCAACTTATC,4.63
7,GGTTAATGATTATGCCTCTGTGACCTATAA,3.19
8,CAAAGTCCCCTGAGCTTGAGTCCATCCCAT,2.7
9,AACTCAGGGTCTGGTTCCAAAGTCTGCAGA,3.57
10,TGGGGATCAAAGCGTATGGGAGGGCTATTT,-0.88
11,ACTCCTACAATTGCTGGTCCCTTTCAAAAC,0.174
12,CCTCCTGCTGCAGCTCTGGGCCCCTCGGCC,-1.31
13,AGCGCTTATCTGGAAACTATTCCTTTGTTT,-0.774
14,TAATAACACTCCCATCTGCCATCAGTATCC,-1.29
15,GAACCTCCCTCCCCATCTCCCCAGACACTC,5.39
16,GCAAACAGAGATAGTTTGACTTTCTCTCTT,-0.618
17,CCTCTGTCTCTCAGGCACAGCTCGACCTTT,6.7
18,GGGGGAAGTGTGGTCAAGGGTCAGTTTCTG,4.48
19,GCCCTTTGTCCTATGACTCTCTCAACACTG,3.47
20,TGGACTCCTGTTTGAACAAACCAGCTTTGA,-0.681
21,AGAAGTTGGACTTTGTACATTCCAAATACG,7.64
22,TGAAGACCTGTACAGGGACTGTGTCAACAA,0.00948
23,CGAGTTCCCTCGATTATTTCAGCCAGGGCT,-1.37
24,CGCCCTCAGTGTTTTCACTGCTGGGTTTCT,0.788
25,TTATGGCTGGTTTGGTCTTTTATCTAGACC,1.81

row,Sequence,binding signal (log2 normalized intensity)
1,CTTTAGGAGAAGGAAAAAAATAGGAGACTG,-1.24
2,CGGGCGGTCGGAGTCCACGTCCTCCCCCAG,3.55
3,ACTCGTGGCATTTTTGCCCCTGCCCTAGAG,2.74
4,ATATCAGGTATTGCCCAGTATTGATGTGAG,0.686
5,CTCTAGGGTAGATAAGGATGGATCAAAGGA,-0.174
6,CAGTCTCTTGAAATCCCAAGCAGTGATATT,0.149
7,AAAAGGATGCTAGGTTTGTGAGTCCAAAGG,5.08
8,GGCTAGACTTTAACCCCCTTGTCTTCCTCA,4.16
9,ACTATTATTAGAGTCCCTTTTTTAGACAAG,-0.146
10,GACCCTTGGCCTCTACAGCTACTCCAGCTG,4.23
11,TAAGGATGCGGACTCCTCCCTCAGCCTGAA,-1.25
12,CAGCCAGAGGCCTTATCTGGCCGCCTAATC,-1.29
13,AGATTTGCAGCTCAAAGTGCTTTTCAATCT,-1.44
14,GAGTAAAGGTCACTCTTGCTATGCAAACAG,3.2
15,GCCGCGCGGCTTCAGAGGCCAGCAGTGCTT,-1.28
16,CTTTCCGTACTTTTCATCTGATCAGTGCCC,2.53
17,CCAGCGAGGTTATTTCACCCCAGCAAACAG,1.22
18,TCAGAGGCTCACAGAGAGGCTTCTGGCCAG,-1.24
19,TCATTGCAATTACTCAATAACCACATGAAT,-1.32
20,AGCGGGGTTTGAATCCCGGGAATCCTCAGC,-1.32
21,GCACCGTGTGCTTTGTAGCACTTTGGACCT,7.16
22,GACTTTCAACAGAGGGCCTCTAGCCCAATA,-1.33
23,CCCTCGGGCCGGGAAACGCCCTCGGCGCGC,1.34
24,CCTTGACACATCTGATTAGAGGCTCAGGTA,-1.24
25,ATTGGCTTGGCTGTGTCCCTTGACCAAAGG,2.62

row,Sequence,binding signal (log2 normalized intensity)
1,AATACCTGCCGCGCGGGGCGCCTCCCGGAG,-1.22
2,CAAATGACAGAAGCAGGACTTAAACACCAG,-1.25
3,TGGGAGACATTCCTTCAGCGTGAACTTTGA,7.24
4,GGCTTGGCAGTCTGGTGCCAAGGAGCCTCT,-1.18
5,TTATCTCCCCAGCTTACAATTCCAATGAGA,0.718
6,GCCACACTGGTTCCTGCACCCGGGCAGCCT,-1.08
7,AAGACATTCCAAGAAGAGCCAATAGTACAC,-0.652
8,ATTACATAGGAGGCTGCCTCTCTGTGCTGG,-1.34
9,TATGGCCGGCCCCTGGAATGCTGAGGGGGG,-1.39
10,GAAAATGTCGTTTTCCCGGTTTGTTCCATG,1.94
11,GGTTTTACCCTGGGAATGGAGAGAGAGAGA,-1.45
12,TAGCTGCTAGAGAAAAAGAAAAGCCTTGTG,-1.32
13,AAATGTACTGGATATAGCCAGATGTCCTTT,2.37
14,CGCCGGAGAATTAAACTGCCGCGCCACTGC,-1.34
15,TTTTGCTCTGATCCTAGTCTTTGCCCCACT,3.94
16,ACAAGTTATTACCGTGATGTTCGTTTGGAT,1.36
17,CCCCTATTAACCAAAGCTACACAGATAAGC,-1.43
18,GTTCGGGGGACGGAGAGCAGGGCGTGGACT,1.78
19,CTTATCACTTGGTGGACATGGTTCACTGAT,1.8
20,AAGGTCCCCACCACAAAGGCCAGAGAAAGA,2.07
21,GGGCAGCCCTGTTTAGGAGGAAATAGAGAG,-1.37
22,CAGGAGGACTGGATCAATGGATCCACTCAG,-1.32
23,ACCCAAGATCAAAGAGAAAGTAAGTGCACA,-0.546
24,CCTGGAAAAGTCTCAGGGGCCTTGCAATGA,-1.22
25,TCAAGAGAATTACAAACAGCCCTGACATTC,-1.2

row,Sequence,binding signal (log2 normalized intensity)
1,CTCCCTGGGCAGTGCAGTATGCGCTCTGGG,-1.34
2,AATTCCCAAGGGTATGTTTGTGATATTGTG,1.53
3,TGTCAATGACCCTAATGGGGTACTTGAACC,3.26
4,GTCCAGTCACAGCAAAAGTAGCCTGGTCAG,-1.34
5,AAGCAGCCCAACAGCATTAAGCTGAGGCAG,-1.24
6,GATGTTTATACAGCCTTGGAAGACACAGAT,-1.35
7,CTGTGTCACGTACCGGCTAGACAAACAGCT,-1.37
8,TCCCCCCTCCTCATTGAGAGTTTTAGGCTG,2.42
9,AGACAACATCGAAGACTTCATGATAACACT,-1.33
10,GCACCAGCCCATTAATCAAGGCTGCCTGGC,-1.35
11,CATGGCAGACAGCAGTCTGAGTAGGAAAGA,-1.39
12,TGTTCACAGTGACGTTCTGCCCCTTATCTT,3.68
13,AGCAAGATGACTTTGGTCTAGACACAGACT,-0.78
14,CAAATTGCTGACTTTCTGTGTCTTGGCAGT,1.24
15,CACAGAGGACGTCAGGCAGAGAGGGACTCT,-1.2
16,CAGGGTAATGAGTGCTATCCCTGGAGCCTT,-1.27
17,ACCCCCGCCCCCATTATCTCCTTAGGTACT,3.33
18,AGCTTGTCCAGAGTAGGCTTGCAAGACTGC,-1.34
19,CGGGAGCATAGCAGCGAGGACAACCAGAGG,-1.31
20,ACCTTGTGCAGTATCCCAGGGACTTACTCA,-0.976
21,ACCCAGGGGACGGAAGTTGCAGTGAGCTAA,-1.23
22,AGAGGGTATACTATTTGCTAATGTCCTTTG,2.47
23,ATGCCTTTCATCTTTGAGAAAACTCCAAAG,-0.84
24,CCCAGCGGTTCCGGGCGGCAGCACAAGGCG,-1.19
25,AGGGAGATGGATATATGTACAGCTGTGTAT,1.21

row,Sequence,binding signal (log2 normalized intensity)
1,ATACTTTGACTGAGACTGCCTCAAACAGCT,-1.31
2,ACTATCATACACTATTTTCCTAAATATGTT,0.941
3,TCCAAAAGGGCAGCAGTAACCCCCCAGGAG,3.77
4,GCGGGCTGGGGGCTGGGCGCGGGATCCTCT,-1.39
5,CCAGCCCAGGTGGCTGCATCCTTCTCCTCC,-1.34
6,GGTCAAAGAGCAATCATCAAGGTGGTTTCA,2.27
7,TGATGAAGCCTATAGTGCTCCCTCCTGTGG,-0.907
8,GCAGAGTGGAGGCCAGCGCCAGGCTGGGGG,-1.35
9,AGGTCAATGCCAGGACCCTGTGGGACTGGT,-0.131
10,ACTCAGTTATCAACCTTATCAGCAGGACAC,-0.227
11,CCATTTCACCTTTGCCCTGTCAGTCTCTCA,4.54
12,GTCAAATCACTGAAGCGACCCCTCGAGGCA,1.82
13,AAAACAGGTGTTCTTTCCCTCCAGCCCACT,1.1
14,TTCCTGAAGATCGCAGACTTTGGACTCTGC,8.57
15,TGGACCATGAGAAACATCCACATGTGGGTC,0.883
16,GTGTTTATCTTGTGGTTGGAATGTTTCTGG,2.14
17,CTGATGAATAGAAAGAGGTCAATGTACTTA,2.94
18,TTGAGAACCTCCCATCAGCTGGGCTTGTTC,-0.188
19,ACTTGGGGTTCTTGGATCCTCAGGGTTCAT,3.08
20,CCTTTTATTCAGGAAGTCGCTTGCCAGTAT,-0.624
21,TTTTTGACTTACCATTTGCTGATAAGTAGG,0.315
22,CAGCCAGGGTCAGGAGAAGCAGAACAGGTA,-1.41
23,CTGCTCATTTTTCCCCTGACAAGTATCTCG,1.99
24,CACAGCAAGTAAATTCCGGGGCTGGAATTT,1.42
25,TGGGCTCGGCGCTCCGCTTACTCGGCCTGG,-1.25

row,Sequence,binding signal (log2 normalized intensity)
1,ACATTCCAGGGAACAAGGGGTGGATCTCTG,-1.34
2,TTGGGGGCCATGTCTCAGCCCAAGATCAAA,-1.06
3,TCCCAGGATGAGGCCGTTCTAGCCCTTTTT,-0.0189
4,CCAATTGACCCTATCCACATTCAGCCCACT,1.07
5,TCACAGGGAATTTCCAAAGAGCAGCTAGCT,-1.28
6,CACACACACAGCTTGGAGCTCCTTGTGAGC,-1.35
7,GACCTTTGCCCTCTGGCCCTTAAAGGCTTT,7.8
8,CCTGGTGACCTTTGTTTGGTCAAATACCTA,3.66
9,GCACAAGAGGGTGGGAGTTCAGGGGGTTGG,-1.09
10,TCTCTGGCATGTATTTATCAACATTCTTTC,1.44
11,GCAATCTAAGTCTGGCTCCTGAAACTAAAG,-1.44
12,GAGGAGAGGCAGTGGCCTGAGGCAGCCAGT,-1.25
13,AGAACTAAGCTGTTGCGTAAGGGTCTGACC,1.56
14,GATACACCCCTAATGAATGGCAAATTAAAC,0.477
15,TTTTCTTCCACCTCCCTCCATGCTGTAGAT,2.34
16,TGCTTGATAAGACTGACAACCGGCTCTTCC,-1.39
17,AAGAGCAATCATCAAGGTGGTTTCACTTCA,-0.868
18,CACCCTGTTGCACAAGCTGTGTGGCATGGT,0.587
19,ATTCATGGACAGCCTTGCCACATGGTCACC,-1.01
20,CCTCTTCCCTCATATAATTTACATAACAGG,1.31
